# Source: the supplement of paper PMC8728848
# This is one part of the list.
# B1: HBHA-Rv (Mycobacterium tuberculosum), P0A5P6 (protein)
# chain: MAENSNIDDIKAPLLAALGAADLALATVNELITNLRERAEETRTDTRSRVEESRARLTKLQEDLPEQLTELREKFTAEELRKAAEGYLEAATSRYNELVERGEAALERLRSQQSFEEVSARAEGYVDQAVELTQEALGTVASQTRAVGERAAKLVGIELPKKAAPAKKAAPAKKAAPAKKAAAKKAPAKKAAAKKVTQK
# What was measured:
# Assay in all cases: glycan array binding signal (z-score within array); higher = stronger binding
# Details in all cases: glycan notation: IUPAC condensed, linker removed
# [1] = target: Fuc(a1-2)Gal6S(b1-3)GlcNAc
# Outline: (§1)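 Glycan array data were curated from 3228 arrays in the Consortium for Functional Glycomics database and kept only where the protein sequence was available. Glycan names were converted to IUPAC-condensed notation, and columns mapping to the same glycan were averaged. The binding signal is a within-array Z-score, averaged across arrays of the same protein sequence at different concentrations or buffers and across linkers. Negative Z-scores can be read as non-binding.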
# [2] = target: Fuc(a1-2)Gal6S(b1-3)GlcNAc6S
# Outline: as §1
# Fuc(a1-2)Gal6S(b1-4)Glc = target: Fuc(a1-2)Gal6S(b1-4)Glc
# Outline: as §1
# [3] = target: Fuc(a1-2)Gal6S(b1-4)Glc6S
# Outline: as §1
# Fuc(a1-2)[Gal(a1-3)]Gal = target: Fuc(a1-2)[Gal(a1-3)]Gal
# Outline: as §1
# [4] = target: Fuc(a1-2)[Gal(a1-3)]Gal(b1-3)GalNAc
# Outline: as §1
# [5] = target: Fuc(a1-2)[Gal(a1-3)]Gal(b1-3)GalNAc(b1-3)Gal(a1-4)Gal(b1-4)Glc
# Outline: as §1
# [6] = target: Fuc(a1-2)[Gal(a1-3)]Gal(b1-3)GlcNAc
# Outline: as §1
# [7] = target: Fuc(a1-2)[Gal(a1-3)]Gal(b1-3)GlcNAc(b1-2)Man(a1-3)[Fuc(a1-2)[Gal(a1-3)]Gal(b1-3)GlcNAc(b1-2)Man(a1-6)]Man(b1-4)GlcNAc(b1-4)GlcNAc
# Outline: as §1
# [8] = target: Fuc(a1-2)[Gal(a1-3)]Gal(b1-3)GlcNAc(b1-2)Man(a1-3)[Fuc(a1-2)[Gal(a1-3)]Gal(b1-3)GlcNAc(b1-2)Man(a1-6)]Man(b1-4)GlcNAc(b1-4)[Fuc(a1-6)]GlcNAc
# Outline: as §1
# [9] = target: Fuc(a1-2)[Gal(a1-3)]Gal(b1-3)GlcNAc(b1-3)GalNAc
# Outline: as §1
# [10] = target: Fuc(a1-2)[Gal(a1-3)]Gal(b1-3)GlcNAc(b1-6)GalNAc
# Outline: as §1
# [11] = target: Fuc(a1-2)[Gal(a1-3)]Gal(b1-4)Glc
# Outline: as §1
# [12] = target: Fuc(a1-2)[Gal(a1-3)]Gal(b1-4)GlcNAc
# Outline: as §1
# [13] = target: Fuc(a1-2)[Gal(a1-3)]Gal(b1-4)GlcNAc(b1-2)Man
# Outline: as §1
# [14] = target: Fuc(a1-2)[Gal(a1-3)]Gal(b1-4)GlcNAc(b1-2)Man(a1-3)[Fuc(a1-2)[Gal(a1-3)]Gal(b1-4)GlcNAc(b1-2)Man(a1-6)]Man(b1-4)GlcNAc(b1-4)GlcNAc
# Outline: as §1
# [15] = target: Fuc(a1-2)[Gal(a1-3)]Gal(b1-4)GlcNAc(b1-2)Man(a1-3)[Fuc(a1-2)[Gal(a1-3)]Gal(b1-4)GlcNAc(b1-2)Man(a1-6)]Man(b1-4)GlcNAc(b1-4)[Fuc(a1-6)]GlcNAc
# Outline: as §1
# [16] = target: Fuc(a1-2)[Gal(a1-3)]Gal(b1-4)GlcNAc(b1-3)GalNAc
# Outline: as §1
# [17] = target: Fuc(a1-2)[Gal(a1-3)]Gal(b1-4)GlcNAc(b1-3)[Fuc(a1-2)[Gal(a1-3)]Gal(b1-4)GlcNAc(b1-6)]GalNAc
# Outline: as §1
# [18] = target: Fuc(a1-2)[Gal(a1-3)]Gal(b1-4)GlcNAc(b1-6)GalNAc
# Outline: as §1
# [19] = target: Fuc(a1-2)[Gal(a1-3)]Gal(b1-4)[Fuc(a1-3)]Glc
# Outline: as §1
# [20] = target: Fuc(a1-2)[Gal(a1-3)]Gal(b1-4)[Fuc(a1-3)]GlcNAc
# Outline: as §1
binder,measurement,setting,value
B1,glycan array binding signal (z-score),[1],-0.227
same,glycan array binding signal (z-score),[2],4.34
same,glycan array binding signal (z-score),Fuc(a1-2)Gal6S(b1-4)Glc,0.069
same,glycan array binding signal (z-score),[3],0.366
same,glycan array binding signal (z-score),Fuc(a1-2)[Gal(a1-3)]Gal,0.108
same,glycan array binding signal (z-score),[4],0.154
same,glycan array binding signal (z-score),[5],-0.449
same,glycan array binding signal (z-score),[6],0.946
same,glycan array binding signal (z-score),[7],-0.386
same,glycan array binding signal (z-score),[8],-0.281
same,glycan array binding signal (z-score),[9],-0.259
same,glycan array binding signal (z-score),[10],-0.326
same,glycan array binding signal (z-score),[11],0.932
same,glycan array binding signal (z-score),[12],-0.209
same,glycan array binding signal (z-score),[13],-0.305
same,glycan array binding signal (z-score),[14],-0.445
same,glycan array binding signal (z-score),[15],-0.437
same,glycan array binding signal (z-score),[16],-0.204
same,glycan array binding signal (z-score),[17],2.82
same,glycan array binding signal (z-score),[18],-0.329
same,glycan array binding signal (z-score),[19],-0.399
same,glycan array binding signal (z-score),[20],0.961
